# Experimental data published in the supplement of paper PMC8728848.
# This is one part of the list.
# B1: CpGal16 (Clavelina picta) (protein)
# chain: MAKMITNYVGKRIECIMVATDMMSTVFSLASATGDLPFYINFRQRENSIVMNTRVHGKWQYEKSQSSGGMNFYEPFRLVVEVRPSVFKVTVSTMGEEDGITFNLQYSQITIKPDEIVAMHLGYCNLRSELLVTDL
# Assays:
# Test in all cases: glycan array binding signal (z-score within array); higher = stronger binding
# Conditions in all cases: glycan notation: IUPAC condensed, linker removed
# [1] = target: GlcNAc(b1-3)Gal(b1-3)GalNAc
# Method in brief: (§1)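 Glycan array data came from 3228 arrays in the Consortium for Functional Glycomics database, and only arrays with an available protein sequence were kept. Glycan names were put into IUPAC-condensed notation, and columns mapping to the same glycan were averaged. The binding signal is a within-array Z-score, averaged across arrays of one protein sequence run at different concentrations or buffers and across linkers. A negative Z-score can be read as non-binding.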
# [2] = target: GlcNAc(b1-3)Gal(b1-4)Glc
# Method in brief: as §1
# [3] = target: GlcNAc(b1-3)Gal(b1-4)GlcNAc
# Method in brief: as §1
# [4] = target: GlcNAc(b1-3)Gal(b1-4)GlcNAc(b1-2)Man(a1-3)[GlcNAc(b1-3)Gal(b1-4)GlcNAc(b1-2)Man(a1-6)]Man(b1-4)GlcNAc(b1-4)GlcNAc
# Method in brief: as §1
# [5] = target: GlcNAc(b1-3)Gal(b1-4)GlcNAc(b1-2)Man(a1-3)[GlcNAc(b1-3)Gal(b1-4)GlcNAc(b1-2)Man(a1-6)]Man(b1-4)GlcNAc(b1-4)[Fuc(a1-6)]GlcNAc
# Method in brief: as §1
# [6] = target: GlcNAc(b1-3)Gal(b1-4)GlcNAc(b1-2)[GlcNAc(b1-3)Gal(b1-4)GlcNAc(b1-6)]Man(a1-6)[GlcNAc(b1-3)Gal(b1-4)GlcNAc(b1-2)Man(a1-3)]Man(b1-4)GlcNAc(b1-4)GlcNAc
# Method in brief: as §1
# [7] = target: GlcNAc(b1-3)Gal(b1-4)GlcNAc(b1-3)Gal(b1-4)GlcNAc
# Method in brief: as §1
# [8] = target: GlcNAc(b1-3)Gal(b1-4)GlcNAc(b1-3)Gal(b1-4)GlcNAc(b1-2)Man(a1-3)[GlcNAc(b1-3)Gal(b1-4)GlcNAc(b1-3)Gal(b1-4)GlcNAc(b1-2)Man(a1-6)]Man(b1-4)GlcNAc(b1-4)GlcNAc
# Method in brief: as §1
# [9] = target: GlcNAc(b1-3)Gal(b1-4)GlcNAc(b1-3)Gal(b1-4)GlcNAc(b1-2)Man(a1-3)[GlcNAc(b1-3)Gal(b1-4)GlcNAc(b1-3)Gal(b1-4)GlcNAc(b1-2)Man(a1-6)]Man(b1-4)GlcNAc(b1-4)[Fuc(a1-6)]GlcNAc
# Method in brief: as §1
# [10] = target: GlcNAc(b1-3)Gal(b1-4)GlcNAc(b1-3)Gal(b1-4)GlcNAc(b1-2)[GlcNAc(b1-3)Gal(b1-4)GlcNAc(b1-3)Gal(b1-4)GlcNAc(b1-6)]Man(a1-6)[GlcNAc(b1-3)Gal(b1-4)GlcNAc(b1-3)Gal(b1-4)GlcNAc(b1-2)Man(a1-3)]Man(b1-4)GlcNAc(b1-4)[Fuc(a1-6)]GlcNAc
# Method in brief: as §1
# [11] = target: GlcNAc(b1-3)Gal(b1-4)GlcNAc(b1-3)Gal(b1-4)GlcNAc(b1-3)Gal(b1-4)GlcNAc(b1-2)Man(a1-3)[GlcNAc(b1-3)Gal(b1-4)GlcNAc(b1-3)Gal(b1-4)GlcNAc(b1-3)Gal(b1-4)GlcNAc(b1-2)Man(a1-6)]Man(b1-4)GlcNAc(b1-4)GlcNAc
# Method in brief: as §1
# [12] = target: GlcNAc(b1-3)Gal(b1-4)GlcNAc(b1-3)Gal(b1-4)GlcNAc(b1-3)Gal(b1-4)GlcNAc(b1-2)Man(a1-3)[GlcNAc(b1-3)Gal(b1-4)GlcNAc(b1-3)Gal(b1-4)GlcNAc(b1-3)Gal(b1-4)GlcNAc(b1-2)Man(a1-6)]Man(b1-4)GlcNAc(b1-4)[Fuc(a1-6)]GlcNAc
# Method in brief: as §1
# [13] = target: GlcNAc(b1-3)Gal(b1-4)GlcNAc(b1-3)Gal(b1-4)GlcNAc(b1-3)Gal(b1-4)GlcNAc(b1-2)[GlcNAc(b1-3)Gal(b1-4)GlcNAc(b1-3)Gal(b1-4)GlcNAc(b1-3)Gal(b1-4)GlcNAc(b1-6)]Man(a1-6)[GlcNAc(b1-3)Gal(b1-4)GlcNAc(b1-3)Gal(b1-4)GlcNAc(b1-3)Gal(b1-4)GlcNAc(b1-2)Man(a1-3)]Man(b1-4)GlcNAc(b1-4)[Fuc(a1-6)]GlcNAc
# Method in brief: as §1
# [14] = target: GlcNAc(b1-3)Gal(b1-4)GlcNAc(b1-3)Gal(b1-4)GlcNAc(b1-3)Gal(b1-4)GlcNAc(b1-3)Gal(b1-4)GlcNAc(b1-2)Man(a1-3)[GlcNAc(b1-3)Gal(b1-4)GlcNAc(b1-3)Gal(b1-4)GlcNAc(b1-3)Gal(b1-4)GlcNAc(b1-3)Gal(b1-4)GlcNAc(b1-2)Man(a1-6)]Man(b1-4)GlcNAc(b1-4)GlcNAc
# Method in brief: as §1
# [15] = target: GlcNAc(b1-3)Gal(b1-4)GlcNAc(b1-3)Gal(b1-4)GlcNAc(b1-3)Gal(b1-4)GlcNAc(b1-3)Gal(b1-4)GlcNAc(b1-2)Man(a1-3)[GlcNAc(b1-3)Gal(b1-4)GlcNAc(b1-3)Gal(b1-4)GlcNAc(b1-3)Gal(b1-4)GlcNAc(b1-3)Gal(b1-4)GlcNAc(b1-2)Man(a1-6)]Man(b1-4)GlcNAc(b1-4)[Fuc(a1-6)]GlcNAc
# Method in brief: as §1
# [16] = target: GlcNAc(b1-3)Gal(b1-4)GlcNAc(b1-3)Gal(b1-4)GlcNAc(b1-3)Gal(b1-4)GlcNAc(b1-3)Gal(b1-4)GlcNAc(b1-2)[GlcNAc(b1-3)Gal(b1-4)GlcNAc(b1-3)Gal(b1-4)GlcNAc(b1-3)Gal(b1-4)GlcNAc(b1-3)Gal(b1-4)GlcNAc(b1-6)]Man(a1-6)[GlcNAc(b1-3)Gal(b1-4)GlcNAc(b1-3)Gal(b1-4)GlcNAc(b1-3)Gal(b1-4)GlcNAc(b1-3)Gal(b1-4)GlcNAc(b1-2)Man(a1-3)]Man(b1-4)GlcNAc(b1-4)[Fuc(a1-6)]GlcNAc
# Method in brief: as §1
# [17] = target: GlcNAc(b1-3)Gal(b1-4)GlcNAc(b1-3)Gal(b1-4)GlcNAc(b1-3)GalNAc
# Method in brief: as §1
# [18] = target: GlcNAc(b1-3)Gal(b1-4)GlcNAc(b1-3)GalNAc
# Method in brief: as §1
# [19] = target: GlcNAc(b1-3)Gal(b1-4)GlcNAc(b1-3)[GlcNAc(b1-3)Gal(b1-4)GlcNAc(b1-3)]GalNAc
# Method in brief: as §1
# [20] = target: GlcNAc(b1-3)Gal(b1-4)GlcNAc(b1-6)[Gal(b1-3)]GalNAc
# Method in brief: as §1
# [21] = target: GlcNAc(b1-3)Gal(b1-4)GlcNAc(b1-6)[GlcNAc(b1-3)Gal(b1-3)]GalNAc
# Method in brief: as §1
# [22] = target: GlcNAc(b1-3)Gal(b1-4)GlcNAc(b1-6)[GlcNAc(b1-3)]Gal(b1-4)GlcNAc
# Method in brief: as §1
# [23] = target: GlcNAc(b1-3)GalNAc
# Method in brief: as §1
# [24] = target: GlcNAc(b1-3)Man
# Method in brief: as §1
# [25] = target: GlcNAc(b1-3)[GlcNAc(b1-4)][GlcNAc(b1-6)]GlcNAc
# Method in brief: as §1
# [26] = target: GlcNAc(b1-3)[GlcNAc(b1-6)]Gal(b1-4)GlcNAc
# Method in brief: as §1
# [27] = target: GlcNAc(b1-3)[GlcNAc(b1-6)]GalNAc
# Method in brief: as §1
# [28] = target: GlcNAc(b1-4)Gal(b1-4)GlcNAc
# Method in brief: as §1
# [29] = target: GlcNAc(b1-4)GlcNAc
# Method in brief: as §1
# [30] = target: GlcNAc(b1-4)GlcNAc(b1-4)GlcNAc
# Method in brief: as §1
# [31] = target: GlcNAc(b1-4)GlcNAc(b1-4)GlcNAc(b1-4)GlcNAc(b1-4)GlcNAc
# Method in brief: as §1
# [32] = target: GlcNAc(b1-4)GlcNAc(b1-4)GlcNAc(b1-4)GlcNAc(b1-4)GlcNAc(b1-4)GlcNAc
# Method in brief: as §1
# [33] = target: GlcNAc(b1-4)[GlcNAc(b1-6)]GalNAc
# Method in brief: as §1
# [34] = target: GlcNAc(b1-6)Gal(b1-4)GlcNAc
# Method in brief: as §1
# [35] = target: GlcNAc(b1-6)GalNAc
# Method in brief: as §1
# [36] = target: GlcNAc6S(b1-3)Gal(b1-4)GlcNAc
# Method in brief: as §1
# [37] = target: Kdn(a2-3)Gal(b1-3)GalNAc
# Method in brief: as §1
# [38] = target: Kdn(a2-3)Gal(b1-3)GlcNAc
# Method in brief: as §1
# [39] = target: Kdn(a2-3)Gal(b1-4)Glc
# Method in brief: as §1
# [40] = target: Kdn(a2-3)Gal(b1-4)GlcNAc
# Method in brief: as §1
# [41] = target: Kdn(a2-3)Gal(b1-4)[Fuc(a1-3)]GlcNAc
# Method in brief: as §1
# [42] = target: Kdn(a2-6)Gal(b1-4)GlcNAc
# Method in brief: as §1
# [43] = target: Man(a1-2)Man(a1-2)Man(a1-3)Man
# Method in brief: as §1
# [44] = target: Man(a1-2)Man(a1-2)Man(a1-6)[Man(a1-3)]Man
# Method in brief: as §1
# [45] = target: Man(a1-2)Man(a1-3)Man
# Method in brief: as §1
binder,measurement,setting,value
B1,glycan array binding signal (z-score),[1],-0.336
same,glycan array binding signal (z-score),[2],-0.381
same,glycan array binding signal (z-score),[3],-0.469
same,glycan array binding signal (z-score),[4],-0.207
same,glycan array binding signal (z-score),[5],-0.048
same,glycan array binding signal (z-score),[6],0.281
same,glycan array binding signal (z-score),[7],-0.579
same,glycan array binding signal (z-score),[8],0.285
same,glycan array binding signal (z-score),[9],0.179
same,glycan array binding signal (z-score),[10],0.153
same,glycan array binding signal (z-score),[11],-0.106
same,glycan array binding signal (z-score),[12],0.36
same,glycan array binding signal (z-score),[13],0.058
same,glycan array binding signal (z-score),[14],0.022
same,glycan array binding signal (z-score),[15],0.265
same,glycan array binding signal (z-score),[16],-0.04
same,glycan array binding signal (z-score),[17],-0.237
same,glycan array binding signal (z-score),[18],-0.398
same,glycan array binding signal (z-score),[19],-0.168
same,glycan array binding signal (z-score),[20],-0.422
same,glycan array binding signal (z-score),[21],-0.395
same,glycan array binding signal (z-score),[22],-0.446
same,glycan array binding signal (z-score),[23],-0.417
same,glycan array binding signal (z-score),[24],-0.411
same,glycan array binding signal (z-score),[25],-0.373
same,glycan array binding signal (z-score),[26],-0.324
same,glycan array binding signal (z-score),[27],-0.317
same,glycan array binding signal (z-score),[28],-0.37
same,glycan array binding signal (z-score),[29],-0.371
same,glycan array binding signal (z-score),[30],-0.461
same,glycan array binding signal (z-score),[31],-0.348
same,glycan array binding signal (z-score),[32],-0.338
same,glycan array binding signal (z-score),[33],-0.406
same,glycan array binding signal (z-score),[34],-0.438
same,glycan array binding signal (z-score),[35],-0.261
same,glycan array binding signal (z-score),[36],-0.325
same,glycan array binding signal (z-score),[37],-0.316
same,glycan array binding signal (z-score),[38],-0.499
same,glycan array binding signal (z-score),[39],-0.339
same,glycan array binding signal (z-score),[40],-0.4
same,glycan array binding signal (z-score),[41],-0.259
same,glycan array binding signal (z-score),[42],-0.352
same,glycan array binding signal (z-score),[43],-0.382
same,glycan array binding signal (z-score),[44],-0.329
same,glycan array binding signal (z-score),[45],-0.333
